# Measured values published in article PMC9911399, “Two distinct binding modes provide the RNA-binding protein RbFox with extraordinary sequence specificity”.
# Residue numbers refer to the chain shown, from its start. This is one part of the list.
# T1: RBFOX1 RRM RbFoxmut (Fox-RRM*) (Homo sapiens, UniProt Q9NWB1 109-208, R118D;E147R;N151S;E152T)
# T1 sequence: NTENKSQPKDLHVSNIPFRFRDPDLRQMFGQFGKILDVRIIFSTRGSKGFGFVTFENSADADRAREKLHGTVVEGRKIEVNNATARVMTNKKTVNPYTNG
# B1: CCAUAUA (DNA:RNA)
# RNA: GGGAGACCGGAAUUCAGAUUGUCCCCAUAUAUUAAAUCCCGUCGUAGCCACCA
# DNA 1: CAATCTGAATTCCGGTCTCCC
# DNA 2: TGGTGGCTACGACGGGATT
# B2: GACACUC (DNA:RNA)
# RNA: B1 RNA with C25G, C26A, A27C, U28A, A29C, A31C
# DNA 1: CAATCTGAATTCCGGTCTCCC
# DNA 2: TGGTGGCTACGACGGGATT
# B3: AAAUACC (DNA:RNA)
# RNA: B1 RNA with C25A, C26A, U30C, A31C
# DNA 1: CAATCTGAATTCCGGTCTCCC
# DNA 2: TGGTGGCTACGACGGGATT
# B4: AAGAAAU (DNA:RNA)
# RNA: B1 RNA with C25A, C26A, A27G, U28A, U30A, A31U
# DNA 1: CAATCTGAATTCCGGTCTCCC
# DNA 2: TGGTGGCTACGACGGGATT
# B5: AGAAGUU (DNA:RNA)
# RNA: B1 RNA with C25A, C26G, U28A, A29G, A31U
# DNA 1: CAATCTGAATTCCGGTCTCCC
# DNA 2: TGGTGGCTACGACGGGATT
# B6: CGGCAGU (DNA:RNA)
# RNA: B1 RNA with C26G, A27G, U28C, U30G, A31U
# DNA 1: CAATCTGAATTCCGGTCTCCC
# DNA 2: TGGTGGCTACGACGGGATT
# B7: GUUCCAG (DNA:RNA)
# RNA: GGGAGACCGGAAUUCAGAUUGUCCGUUCCAGUUAAAUCCCGUCGUAGCCACCA
# DNA 1: CAATCTGAATTCCGGTCTCCC
# DNA 2: TGGTGGCTACGACGGGATT
# B8: AAUUGAC (DNA:RNA)
# RNA: B7 RNA with G25A, U26A, C28U, C29G, G31C
# DNA 1: CAATCTGAATTCCGGTCTCCC
# DNA 2: TGGTGGCTACGACGGGATT
# B9: UCGGAAC (DNA:RNA)
# RNA: B1 RNA with C25U, A27G, U28G, U30A, A31C
# DNA 1: CAATCTGAATTCCGGTCTCCC
# DNA 2: TGGTGGCTACGACGGGATT
# B10: CCGCAUG (DNA:RNA)
# RNA: B1 RNA with A27G, U28C, A31G
# DNA 1: CAATCTGAATTCCGGTCTCCC
# DNA 2: TGGTGGCTACGACGGGATT
# B11: AAUAUGU (DNA:RNA)
# RNA: B7 RNA with G25A, U26A, C28A, C29U, A30G, G31U
# DNA 1: CAATCTGAATTCCGGTCTCCC
# DNA 2: TGGTGGCTACGACGGGATT
# B12: CCGCUGA (DNA:RNA)
# RNA: B1 RNA with A27G, U28C, A29U, U30G
# DNA 1: CAATCTGAATTCCGGTCTCCC
# DNA 2: TGGTGGCTACGACGGGATT
# B13: AGGGCCG (DNA:RNA)
# RNA: B7 RNA with G25A, U26G, U27G, C28G, A30C
# DNA 1: CAATCTGAATTCCGGTCTCCC
# DNA 2: TGGTGGCTACGACGGGATT
# B14: ACUAGGA (DNA:RNA)
# RNA: B1 RNA with C25A, A27U, U28A, A29G, U30G
# DNA 1: CAATCTGAATTCCGGTCTCCC
# DNA 2: TGGTGGCTACGACGGGATT
# B15: AAAACCA (DNA:RNA)
# RNA: B1 RNA with C25A, C26A, U28A, A29C, U30C
# DNA 1: CAATCTGAATTCCGGTCTCCC
# DNA 2: TGGTGGCTACGACGGGATT
# B16: GAUCGCU (DNA:RNA)
# RNA: B7 RNA with U26A, C29G, A30C, G31U
# DNA 1: CAATCTGAATTCCGGTCTCCC
# DNA 2: TGGTGGCTACGACGGGATT
# B17: GUCUAUG (DNA:RNA)
# RNA: B1 RNA with C25G, C26U, A27C, A31G
# DNA 1: CAATCTGAATTCCGGTCTCCC
# DNA 2: TGGTGGCTACGACGGGATT
# B18: AAAUAGG (DNA:RNA)
# RNA: B1 RNA with C25A, C26A, U30G, A31G
# DNA 1: CAATCTGAATTCCGGTCTCCC
# DNA 2: TGGTGGCTACGACGGGATT
# B19: CUUUAAC (DNA:RNA)
# RNA: B1 RNA with C26U, A27U, U30A, A31C
# DNA 1: CAATCTGAATTCCGGTCTCCC
# DNA 2: TGGTGGCTACGACGGGATT
# B20: AACAUCC (DNA:RNA)
# RNA: GGGAGACCGGAAUUCAGAUUGUCCAACAUCCUUAAAUCCCGUCGUAGCCACCA
# DNA 1: CAATCTGAATTCCGGTCTCCC
# DNA 2: TGGTGGCTACGACGGGATT
# Target: T1, RBFOX1 RRM RbFoxmut (Fox-RRM*)
# Test: EMSA; HiTS-Eq, 1 nM pool, 10 min; buffer printed only for the single-RNA assays: 10 mM Tris pH 7.5, 150 mM NaCl, 3.4 mM EDTA, 0.001% NP-40, 30 C
# Conditions: tags: His6 N-terminal (pET28a); label: 5' 32P
# In short: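 Relative association constants, normalised to the cognate motif, were derived by comparing read counts of each RNA species with those of the control reaction. The RNA sequenced was the free fraction, separated by 8% native PAGE after a 10 min equilibration in 50 µL of 1 nM 5′-radiolabelled RNA (7 randomized nucleotides) with increasing concentrations of purified wild-type or mutant RbFox RRM.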
row,Binder,binding signal
1,B1,0.11 KA relative to UGCAUGU
2,B2,0.0417 KA relative to UGCAUGU
3,B3,0.105 KA relative to UGCAUGU
4,B4,0.0785 KA relative to UGCAUGU
5,B5,0.103 KA relative to UGCAUGU
6,B6,0.0773 KA relative to UGCAUGU
7,B7,0.107 KA relative to UGCAUGU
8,B8,0.0885 KA relative to UGCAUGU
9,B9,0.0772 KA relative to UGCAUGU
10,B10,1.13 KA relative to UGCAUGU
11,B11,0.101 KA relative to UGCAUGU
12,B12,0.116 KA relative to UGCAUGU
13,B13,0.141 KA relative to UGCAUGU
14,B14,0.0756 KA relative to UGCAUGU
15,B15,0.0991 KA relative to UGCAUGU
16,B16,0.0689 KA relative to UGCAUGU
17,B17,0.161 KA relative to UGCAUGU
18,B18,0.0847 KA relative to UGCAUGU
19,B19,0.124 KA relative to UGCAUGU
20,B20,0.0502 KA relative to UGCAUGU
